# Assay results published in the supplement of paper PMC8728848.
# This is one part of the list.
# How the values were obtained:
# Assay in all cases: glycan array binding signal (z-score within array); higher = stronger binding
# Conditions in all cases: glycan notation: IUPAC condensed, linker removed
# [1] = target: Glc(b1-4)Glc(b1-4)Glc(b1-4)Glc(b1-4)Glc
# Summary of the method: (§1)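 The binding signal is a Z-score computed within each array. Data were drawn from 3228 arrays in the Consortium for Functional Glycomics database, restricted to those with a known protein sequence. Scores were averaged over arrays of the same protein sequence at different concentrations or buffers, and over linkers, and negative values can be taken as non-binding.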
# [2] = target: Glc(b1-4)Glc(b1-4)Glc(b1-4)Glc(b1-4)Glc(b1-4)Glc
# Summary of the method: as §1
# [3] = target: Glc(b1-4)Glc(b1-4)Glc(b1-4)Glc(b1-4)Glc(b1-4)Glc(b1-4)Glc
# Summary of the method: as §1
# [4] = target: Glc(b1-4)Glc(b1-4)Glc(b1-4)Glc(b1-4)Glc(b1-4)Glc(b1-4)Glc(b1-4)Glc
# Summary of the method: as §1
# [5] = target: Glc(b1-4)Glc(b1-4)Glc(b1-4)Glc(b1-4)Glc(b1-4)Glc(b1-4)Glc(b1-4)Glc(b1-4)Glc
# Summary of the method: as §1
# [6] = target: Glc(b1-4)Glc(b1-4)Glc(b1-4)Glc(b1-4)Glc(b1-4)Glc(b1-4)Glc(b1-4)Glc(b1-4)Glc(b1-4)Glc
# Summary of the method: as §1
# [7] = target: Glc(b1-4)Glc(b1-4)Glc(b1-4)Glc(b1-4)Glc(b1-4)Glc(b1-4)Glc(b1-4)Glc(b1-4)Glc(b1-4)Glc(b1-4)Glc
# Summary of the method: as §1
# [8] = target: Glc(b1-4)Glc(b1-4)Glc(b1-4)Glc(b1-4)Glc(b1-4)Glc(b1-4)Glc(b1-4)Glc(b1-4)Glc(b1-4)Glc(b1-4)Glc(b1-4)Glc
# Summary of the method: as §1
# [9] = target: Glc(b1-4)Glc(b1-4)Glc(b1-4)Glc(b1-4)Glc(b1-4)Glc(b1-4)Glc(b1-4)Glc(b1-4)Glc(b1-4)Glc(b1-4)Glc(b1-4)Glc(b1-4)Glc
# Summary of the method: as §1
# [10] = target: Glc(b1-6)Glc
# Summary of the method: as §1
# [11] = target: Glc(b1-6)Glc(b1-6)Glc
# Summary of the method: as §1
# [12] = target: Glc(b1-6)Glc(b1-6)Glc(b1-6)Glc
# Summary of the method: as §1
# [13] = target: Glc(b1-6)Glc(b1-6)Glc(b1-6)Glc(b1-6)Glc
# Summary of the method: as §1
# [14] = target: Glc(b1-6)Glc(b1-6)Glc(b1-6)Glc(b1-6)Glc(b1-6)Glc
# Summary of the method: as §1
# [15] = target: Glc(b1-6)Glc(b1-6)Glc(b1-6)Glc(b1-6)Glc(b1-6)Glc(b1-6)Glc
# Summary of the method: as §1
# [16] = target: Glc(b1-6)Glc(b1-6)Glc(b1-6)Glc(b1-6)Glc(b1-6)Glc(b1-6)Glc(b1-6)Glc
# Summary of the method: as §1
# [17] = target: Glc(b1-6)Glc(b1-6)Glc(b1-6)Glc(b1-6)Glc(b1-6)Glc(b1-6)Glc(b1-6)Glc(b1-6)Glc
# Summary of the method: as §1
# [18] = target: Glc(b1-6)Glc(b1-6)Glc(b1-6)Glc(b1-6)Glc(b1-6)Glc(b1-6)Glc(b1-6)Glc(b1-6)Glc(b1-6)Glc
# Summary of the method: as §1
# [19] = target: Glc(b1-6)Glc(b1-6)Glc(b1-6)Glc(b1-6)Glc(b1-6)Glc(b1-6)Glc(b1-6)Glc(b1-6)Glc(b1-6)Glc(b1-6)Glc
# Summary of the method: as §1
# [20] = target: Glc(b1-6)Glc(b1-6)Glc(b1-6)Glc(b1-6)Glc(b1-6)Glc(b1-6)Glc(b1-6)Glc(b1-6)Glc(b1-6)Glc(b1-6)Glc(b1-6)Glc(b1-6)Glc(b1-6)Glc(b1-6)Glc
# Summary of the method: as §1
# [21] = target: Man(b1-4)Man(b1-4)Man(b1-4)Man
# Summary of the method: as §1
# [22] = target: Man(b1-4)Man(b1-4)Man(b1-4)Man(b1-4)Man
# Summary of the method: as §1
# [23] = target: Man(b1-4)Man(b1-4)Man(b1-4)Man(b1-4)Man(b1-4)Man
# Summary of the method: as §1
# [24] = target: Xyl(b1-4)Xyl(b1-4)Xyl(b1-4)Xyl(b1-4)Xyl
# Summary of the method: as §1
# [25] = target: Xyl(b1-4)Xyl(b1-4)Xyl(b1-4)Xyl(b1-4)Xyl(b1-4)Xyl
# Summary of the method: as §1
binder,measurement,setting,value
"Pul13 (Thermotoga maritima), O33840 (protein) ETTIVVHYHRYDGKYDGWNLWIWPVEPVSQEGKAYQFTGEDDFGKVAVVKLPMDLTKVGIIVRLNEWQAKDVAKDRFIEIKDGKAEVWILQGVEEIFYEKP",glycan array binding signal (z-score),[1],-0.351
same,glycan array binding signal (z-score),[2],-0.351
same,glycan array binding signal (z-score),[3],-0.351
same,glycan array binding signal (z-score),[4],-0.351
same,glycan array binding signal (z-score),[5],-0.351
same,glycan array binding signal (z-score),[6],-0.351
same,glycan array binding signal (z-score),[7],-0.35
same,glycan array binding signal (z-score),[8],-0.351
same,glycan array binding signal (z-score),[9],-0.347
same,glycan array binding signal (z-score),[10],-0.351
same,glycan array binding signal (z-score),[11],-0.351
same,glycan array binding signal (z-score),[12],-0.351
same,glycan array binding signal (z-score),[13],-0.351
same,glycan array binding signal (z-score),[14],-0.351
same,glycan array binding signal (z-score),[15],-0.351
same,glycan array binding signal (z-score),[16],-0.351
same,glycan array binding signal (z-score),[17],-0.342
same,glycan array binding signal (z-score),[18],-0.351
same,glycan array binding signal (z-score),[19],-0.346
same,glycan array binding signal (z-score),[20],-0.32
same,glycan array binding signal (z-score),[21],-0.344
same,glycan array binding signal (z-score),[22],-0.351
same,glycan array binding signal (z-score),[23],-0.351
same,glycan array binding signal (z-score),[24],-0.347
same,glycan array binding signal (z-score),[25],-0.351
